Assay results reported in PMC4336329 (PLoS ONE, 2015).
The whole screen tested about 310,000 compounds, of which about 14,000 (4.5%) showed an effect of 50% or more. The effect is printed as a negative number. This is one part of the list.

Target: human ether-à-go-go-related gene (hERG) potassium channel (human, UniProt Q12809)
Assay: primary screen, population patch clamp on CHO cells stably expressing hERG
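Note: peak tail current of the secondary pulse compared with the same well before compound.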

human ether-à-go-go-related gene (hERG) potassium channel, sequence (Q12809 whole entry, looked up): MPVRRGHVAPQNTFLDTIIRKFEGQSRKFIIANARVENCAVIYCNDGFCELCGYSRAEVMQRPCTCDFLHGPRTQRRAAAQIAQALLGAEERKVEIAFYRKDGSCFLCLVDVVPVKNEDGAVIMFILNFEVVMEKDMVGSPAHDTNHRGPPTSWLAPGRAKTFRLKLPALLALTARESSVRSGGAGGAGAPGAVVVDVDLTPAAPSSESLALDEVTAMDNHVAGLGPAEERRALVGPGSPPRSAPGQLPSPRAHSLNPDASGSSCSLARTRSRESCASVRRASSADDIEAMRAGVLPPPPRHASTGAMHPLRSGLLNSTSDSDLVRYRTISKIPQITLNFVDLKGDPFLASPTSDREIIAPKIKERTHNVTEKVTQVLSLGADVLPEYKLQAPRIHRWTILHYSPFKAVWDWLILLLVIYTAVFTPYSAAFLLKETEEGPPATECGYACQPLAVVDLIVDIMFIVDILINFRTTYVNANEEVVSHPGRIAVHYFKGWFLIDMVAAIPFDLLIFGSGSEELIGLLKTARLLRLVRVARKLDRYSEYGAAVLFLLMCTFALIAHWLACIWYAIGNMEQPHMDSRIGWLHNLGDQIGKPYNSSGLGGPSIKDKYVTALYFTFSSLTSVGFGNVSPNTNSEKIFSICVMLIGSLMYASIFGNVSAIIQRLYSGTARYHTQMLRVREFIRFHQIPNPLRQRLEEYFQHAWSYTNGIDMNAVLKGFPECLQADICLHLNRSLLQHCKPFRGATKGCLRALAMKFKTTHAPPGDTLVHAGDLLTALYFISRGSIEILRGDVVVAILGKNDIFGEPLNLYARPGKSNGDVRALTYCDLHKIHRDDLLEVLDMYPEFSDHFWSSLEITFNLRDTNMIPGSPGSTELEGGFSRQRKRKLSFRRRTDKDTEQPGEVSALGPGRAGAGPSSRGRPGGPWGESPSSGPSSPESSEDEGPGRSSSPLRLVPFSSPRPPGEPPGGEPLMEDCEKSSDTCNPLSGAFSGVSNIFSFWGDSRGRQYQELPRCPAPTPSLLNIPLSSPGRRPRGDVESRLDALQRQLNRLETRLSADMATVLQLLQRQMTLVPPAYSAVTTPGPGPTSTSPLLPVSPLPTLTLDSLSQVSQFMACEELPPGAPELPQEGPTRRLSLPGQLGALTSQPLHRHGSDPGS

Row | Compound | hERG current change (%, negative = inhibition) at 10uM [%]
1 | COc1ccc2oc(C(=O)OCC(=O)Nc3cc(S(=O)(=O)N4CCOCC4)ccc3OC)c(C)c2c1 | -8.22
2 | CCCCC(=O)NC(c1ccco1)c1c(O)ccc2ccccc12 (stereo not drawn) | -2.6
3 | CC1=CC(C)C(CN(CCC[N+](C)(C)C)C(=O)Nc2ccccc2)C(C)C1.[I-] (stereo not drawn) | 22.7
4 | Cc1sc(NC(=O)c2ccco2)c(CN2CCN(c3ccccn3)CC2)c1C | -7.81
5 | CN(C)c1ccc(C(=O)NC2CCCc3ccccc32)cc1 (stereo not drawn) | 7.5
6 | CC1(c2ccc(Cl)c(Cl)c2)NC(=S)N2C1NC(=S)N2c1ccccc1 (stereo not drawn) | 10.9
7 | CCOC(=O)c1sc(=S)n(C)c1NC(=O)c1ccccc1C | 4
8 | CNc1sc(C(=O)c2ccccc2F)c(N)c1-c1nc2ccccc2s1 | 10.5
9 | CCOc1ccccc1NC(=O)Nc1ccc2c(c1)OCO2 | 4.49
10 | CC(C)CN1C(=O)NC(NC(=O)c2cccs2)(C(F)(F)F)C1=O (stereo not drawn) | -17.8
11 | CCN(CC1CCCO1)C(=O)CCc1nnc(CCc2ccccc2OC)o1 (stereo not drawn) | -3.32
12 | COc1ccc(CCc2nnc(CCC(=O)NCc3cnc4ccccn34)o2)cc1 | 13.3
13 | Cc1ccc(NC(=O)CSc2nn(-c3ccccc3)c(=S)s2)cc1S(=O)(=O)N(C)C | 13.9
14 | CC1Cc2nc(SCC(=O)N3CCOCC3)n(-c3ccccc3)c(=O)c2S1 (stereo not drawn) | 5.44
15 | CC(CCc1ccccc1)NC(=O)c1ccc2nc(N3CCOCC3)sc2c1 (stereo not drawn) | 3.85
16 | Cc1ccc(C)c(N(C(=O)c2csnn2)C(C(=O)NC2CCCCC2)c2ccccn2)c1 (stereo not drawn) | 1.87
17 | CC(=O)Nc1ccc(-c2nc3c(C)cccc3[nH]2)cc1 | 6.65
18 | Cc1c(C(=O)Nc2ccc3c(c2)OCO3)sc2nc(-c3ccccc3)cn12 | 20.4
19 | Cn1cnnc1-c1cccc(NS(=O)(=O)c2ccc(N3CCCC3=O)cc2)c1 | 9.92
20 | COC(=O)c1c(NC(C)=O)sc(C(=O)Nc2ccccc2C)c1C | 16
21 | Cc1ccc(N=C(NO)c2cnccc2C(F)(F)F)c(C)c1 | 8.93
22 | CCC(C)(C)NC(=O)C(c1ccncc1)N(Cc1ccc(C)cc1)C(=O)c1csnn1 (stereo not drawn) | -14.1
23 | O=C(c1ccco1)N1CCN(C(=O)C2CC(c3ccccc3F)=NO2)CC1 (stereo not drawn) | -18.3
24 | CC(=O)c1cc2c(cc1NC(=O)CSc1nc3ccccc3[nH]1)OCO2 | -45.3
